For 42 compounds, inhibition results are on record in ChEMBL document CHEMBL5606458, “ASAP - ZIKV NS2B-NS3 protease fluorescence single point” (2024).

The target of this experiment is Nonstructural protein 3 (Zika virus) (UniProt A0A024AXB9).
[1] abbreviates: PRVABC59, Concentration 15.0 uM, Number of replicates 1.0.
Where [2] appears, read: PRVABC59, Concentration 50.0 uM, Number of replicates 1.0.
[3] abbreviates: PRVABC59, Concentration 10.0 uM, Number of replicates 1.0.

The whole screen tested about 2,700 compounds, of which about 160 (5.9%) showed an effect of 50% or more. The list shows a part of the results.

UniProt A0A024AXB9, sequence (A0A024AXB9 as listed by the source): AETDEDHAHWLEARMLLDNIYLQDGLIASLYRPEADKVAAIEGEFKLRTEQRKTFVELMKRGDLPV

For `CC(=O)Nc1ccc(C(=O)Nc2ccccc2Cc2cccc3c(CO)cc(C)nc23)cn1`, the inhibition (PRVABC59, Concentration 49.95 uM, Number of replicates 2.0, Standard deviation 1.3996571367154935 %) came to 0.389% and the inhibition (PRVABC59, Concentration 99.9 uM, Number of replicates 2.0, Standard deviation 1.6236024775230975 %) was 4.89%.

With `O=C(c1cc(Cl)ccc1NS(=O)(=O)c1ccc(Oc2ccccc2Cl)cc1)N(Cc1ccccc1)[C@@H](CO)c1ccccc1`, the inhibition under setting [1] turned out to be 25.2%.

As for `C[C@@H](c1cccc2ccccc12)N(C)C(=O)c1cc(Cl)ccc1NS(=O)(=O)c1ccc(Oc2ccccc2Cl)cc1`, the inhibition under setting [1] came out at 26.3%.

Turning to `CN1CCN2CCN(C(=O)C3CCN(c4ccc(C=O)cc4)CC3)C[C@H]2C1`, the inhibition under setting [2] was 22.9%.

Take `O=Cc1ccc(N2CCC(C(=O)Nc3cc(F)c(F)cc3Br)CC2)cc1`: under setting [2], the inhibition turned out to be 21.8%.

In the case of `Cc1cc(CO)c2cccc(Cc3ccccc3NC(=O)[C@@H]3CC(=O)CCN3)c2n1`, the inhibition is, setting by setting: (PRVABC59, Concentration 49.95 uM, Number of replicates 2.0, Standard deviation 2.0918511827871282 %) 2.78%; (PRVABC59, Concentration 99.9 uM, Number of replicates 2.0, Standard deviation 0.8805117286023129 %) 13.2%.

On to `O=Cc1ccc(N2CCC(C(=O)Nc3ccccc3)CC2)cc1`, for which, under setting [2], the inhibition came out at 15.9%.

Take `Cc1cc(CO)c2cccc(Cc3cccc(NC(=O)[C@@H]4CCCC[C@H]4C(=O)O)c3)c2n1`: the inhibition by setting is: (PRVABC59, Concentration 49.95 uM, Number of replicates 2.0, Standard deviation 2.8502108076927426 %) -0.349%; (PRVABC59, Concentration 99.9 uM, Number of replicates 2.0, Standard deviation 0.9670358368472974 %) 2.6%.

Consider `O=C(c1cc(Cl)ccc1NS(=O)(=O)c1ccc(Oc2ccccc2Cl)cc1)N1CCCCC[C@H]1c1ccco1`, for which the inhibition under setting [1] worked out at 20.1%.

Turning to `O=Cc1ccc(N2CCC(C(=O)NC3CCN(C(=O)NC4CCCCC4)CC3)CC2)cc1`, the inhibition under setting [2] was 26.4%.

Turning to `O=C(O)c1cccc(NC(=O)c2ccc(Br)cc2)c1`, the inhibition (PRVABC59, Concentration 49.5 uM, Number of replicates 2.0, Standard deviation 2.505145118039987 %) is -0.68%; the inhibition (PRVABC59, Concentration 99.01 uM, Number of replicates 2.0, Standard deviation 2.5632594265497786 %) was 0.859%; the inhibition (PRVABC59, Concentration 198.0 uM, Number of replicates 2.0, Standard deviation 2.4906164250087053 %) worked out at 4.24%.

`O=C(NCCc1ncc[nH]1)c1ccn([C@H]2CCCNC2)n1`: the inhibition is -1.72% (PRVABC59, Concentration 49.5 uM, Number of replicates 2.0, Standard deviation 2.6538722637890775 %); -2.6% (PRVABC59, Concentration 99.01 uM, Number of replicates 2.0, Standard deviation 2.837743348434735 %); -3.41% (PRVABC59, Concentration 198.0 uM, Number of replicates 2.0, Standard deviation 3.5466682603723454 %).

In the case of `Cc1nn(Cc2ccccc2OC(F)F)cc1C1CCNCC1`, the inhibition is -0.579% (PRVABC59, Concentration 49.5 uM, Number of replicates 2.0, Standard deviation 0.16570549790952246 %); 3.22% (PRVABC59, Concentration 99.01 uM, Number of replicates 2.0, Standard deviation 0.11392259435015849 %); 8.61% (PRVABC59, Concentration 198.0 uM, Number of replicates 2.0, Standard deviation 0.14085004727637462 %).

As to `C[C@@H](CNC(=O)C1CCN(c2ccc(C=O)cc2)CC1)N(C)c1ccccc1`, the inhibition under setting [2] is 27.6%.

With `O=C(Nc1ccc(I)cc1)c1cc(Cl)ccc1NS(=O)(=O)c1ccc(Oc2ccccc2Cl)cc1`, the inhibition under setting [1] was found to be 58.1%.

Turning to `O=Cc1ccc(N2CCC(C(=O)NC34CC5CC(CC(C5)C3)C4)CC2)cc1`, under setting [2], the inhibition amounted to 24.4%.

With `CC(C)(CO)NC(=O)c1cc(Cl)cc(NC(=O)c2cc(C(N)=O)[nH]n2)c1`, the inhibition by setting is: (PRVABC59, Concentration 49.5 uM, Number of replicates 2.0, Standard deviation 1.4378426872285457 %) -2.73%; (PRVABC59, Concentration 99.01 uM, Number of replicates 2.0, Standard deviation 0.7178957000557602 %) -2.45%; (PRVABC59, Concentration 198.0 uM, Number of replicates 2.0, Standard deviation 2.7115945855342938 %) -2.1%.

`Cc1cn(-c2cc(NC(=O)c3cc(Cl)ccc3NS(=O)(=O)c3ccc(Oc4ccccc4Cl)cc3)cc(C(F)(F)F)c2)cn1`: the inhibition under setting [1] came to 26.2%.

As to `O=Cc1ccc(N2CCC(C(=O)Nc3ccnc(Br)c3)CC2)cc1`, under setting [2], the inhibition is 20.2%.

For `Cc1cc(CO)c2cccc(Cc3ccccc3NC(=O)Cc3csc(Cc4ccccc4)n3)c2n1`, the inhibition (PRVABC59, Concentration 99.9 uM, Number of replicates 2.0, Standard deviation 1.236787932049936 %) was determined as 0.014%.

Turning to `CC(=O)N1CCC(N(C)C(=O)C2CCN(c3ccc(C=O)cc3)CC2)CC1`, under setting [2], the inhibition was found to be 23.8%.

On to `Cc1nc(Br)ccc1NC(=O)C1CCN(c2ccc(C=O)cc2)CC1`, for which the inhibition under setting [2] came out at 23.2%.

`O=C(Nc1ccc2ccccc2c1O)c1cc(Cl)ccc1NS(=O)(=O)c1ccc(Oc2ccccc2Cl)cc1`: the inhibition under setting [1] was 14%.

As to `COC(=O)c1ccc(F)c(Cn2cc(C3CCNCC3)c(C)n2)c1`, the inhibition runs as follows: (PRVABC59, Concentration 49.5 uM, Number of replicates 2.0, Standard deviation 1.8234550992150553 %) 1.56%; (PRVABC59, Concentration 99.01 uM, Number of replicates 2.0, Standard deviation 0.947622366220452 %) 0.074%; (PRVABC59, Concentration 198.0 uM, Number of replicates 2.0, Standard deviation 0.08409628118336304 %) 3.65%.

Regarding `CSCC[C@H](NC(=O)OC(C)(C)C)C(=O)N1CCC[C@H]1C(=O)Nc1cccc2ncccc12`, the inhibition (PRVABC59, Concentration 49.5 uM, Number of replicates 2.0, Standard deviation 3.7582844678787546 %) is -1.14%; the inhibition (PRVABC59, Concentration 99.01 uM, Number of replicates 2.0, Standard deviation 4.1601644464989835 %) was -0.944%; the inhibition (PRVABC59, Concentration 198.0 uM, Number of replicates 2.0, Standard deviation 0.9895537178949099 %) was -3.24%.

Turning to `O=C(N[C@H]1Cc2ccc(Br)cc2C1)c1cc(Cl)ccc1NS(=O)(=O)c1ccc(Oc2ccccc2Cl)cc1`, the inhibition under setting [1] came to 18.4%.

Take `COc1cccc(F)c1CNC(=O)c1cc(Cl)ccc1NS(=O)(=O)c1ccc(Oc2ccccc2Cl)cc1`: the inhibition under setting [1] is 30.2%.

Consider `O=C(Nc1ccccc1Oc1ccccc1)c1cc(Cl)ccc1NS(=O)(=O)c1ccc(Oc2ccccc2Cl)cc1`, for which the inhibition under setting [1] came to 54.2%.

With `C[C@@H](C(=O)c1cccc(Cl)c1)N(C(=O)C1CCN(c2ccc(C=O)cc2)CC1)C(C)(C)C`, the inhibition under setting [2] worked out at 18.1%.

In the case of `CN1CCN(c2ccc(CNC(=O)C3CCN(c4ccc(C=O)cc4)CC3)cc2)CC1`, the inhibition under setting [3] was found to be 26.8%.

Regarding `CC(C)N(C[C@H](O)COc1cccc2ccccc12)C(=O)c1cc(Cl)ccc1NS(=O)(=O)c1ccc(Oc2ccccc2Cl)cc1`, under setting [1], the inhibition came to 15.3%.

Consider `O=Cc1ccc(N2CCC(C(=O)Nc3ccc([N+](=O)[O-])cc3)CC2)cc1`, for which the inhibition under setting [2] was determined as 43%.

For the compound `CCc1noc(Cn2cc(C3CCNCC3)c(C)n2)n1`, the inhibition by setting is: (PRVABC59, Concentration 49.5 uM, Number of replicates 2.0, Standard deviation 1.3112558078378338 %) -2.04%; (PRVABC59, Concentration 99.01 uM, Number of replicates 2.0, Standard deviation 0.11511703603695722 %) -1.43%; (PRVABC59, Concentration 198.0 uM, Number of replicates 2.0, Standard deviation 0.57558549628615 %) 0.495%.

Take `Cc1cc(CO)c2cccc(C[C@H](NC(=O)c3ccno3)C(=O)O)c2n1`: the inhibition was -0.405% (PRVABC59, Concentration 49.95 uM, Number of replicates 2.0, Standard deviation 1.3649353828004607 %) and 4.79% (PRVABC59, Concentration 99.9 uM, Number of replicates 2.0, Standard deviation 2.6244896515699807 %).

As for `O=Cc1ccc(N2CCC(C(=O)N[C@H](CO)CC3CCCCC3)CC2)cc1`, the inhibition under setting [2] was found to be 21.1%.

As to `CN(C)C1(CNC(=O)c2cc(Cl)ccc2NS(=O)(=O)c2ccc(Oc3ccccc3Cl)cc2)CCOCC1`, the inhibition under setting [1] is -7.12%.

Regarding `Cc1nc(NC(=O)C2CCN(c3ccc(C=O)cc3)CC2)ccc1Br`, the inhibition under setting [2] was 20.8%.

Consider `O=Cc1ccc(N2CCC(C(=O)Nc3ncc(Br)c(C(F)(F)F)n3)CC2)cc1`, for which, under setting [2], the inhibition amounted to 22.3%.

Take `O=C(N[C@H]1CC(=O)N(Cc2ccccc2)C1)c1cc(Cl)ccc1NS(=O)(=O)c1ccc(Oc2ccccc2Cl)cc1`: the inhibition under setting [1] was determined as 22%.

Consider `CC(=O)N[C@@H](CCCCN)C(=O)Nc1cccc2c(Cl)cc(C)nc12`, for which the inhibition by setting is: (PRVABC59, Concentration 49.95 uM, Number of replicates 2.0, Standard deviation 3.802363243631691 %) 19.9%; (PRVABC59, Concentration 99.9 uM, Number of replicates 2.0, Standard deviation 2.8723353743500515 %) 37.2%.

As to `CC1(C)OB(c2ccc(Cl)cc2CNC2CCCCC2)OC1(C)C`, the inhibition (PRVABC59, Concentration 500.0 uM, Number of replicates 2.0, Standard deviation 1.9574328288872134 %) was determined as 5.92%.

With `C[C@H](NC(=O)C1CCN(c2ccc(C=O)cc2)CC1)c1ccc([N+](=O)[O-])cc1`, under setting [3], the inhibition was 26%.

As usually defined, the inhibition is the drop in the measured response relative to a control, in per cent.
